Measurements reported in ChEMBL document CHEMBL4888484, “Replenishing the malaria drug discovery pipeline: Screening and hit evaluation of the MMV Hit Generation Library 1 (HGL1) against asexual blood stage Plasmodium falciparum ,using a nano luciferase reporter read-out” (2022).
Out of some 150,000 compounds screened, about 540 (0.36%) showed an effect of 50% or more. Some of the results follow.

test system: Plasmodium falciparum; assay: Primary screen in NF54 nanoGlo assay, in single point, at 2uM, 72h; a lower Z score goes with more inhibition; type: functional, Erythrocyte; details: timepoint 72 hour

SMILES	% Inhibition [%]	Z score
O=C(CN1C(=O)[C@@H]2CCCCN2c2ccc(C(=O)N3CCCCC3)cc21)NC1CCCCCCC1	-14	1.25
CCc1noc2nc(C)nc(NCc3ccco3)c12	8	-0.89
CCn1nc(C(=O)N2CC(=O)Nc3ccccc32)cc1C	0	0.01
N#Cc1ccc(N[C@H]2CCCN(Cc3ccc(F)cc3F)C2=O)cn1	36	-5.14
Cc1ccc2c(c1)C(NCc1nnc3n1CCCC3)C(C)C2 (stereo unspecified)	-2	0.4
Cc1cc(NC(=O)CN2CCCC[C@@H]2CNC(=O)OC(C)(C)C)no1	-15	2.89
CCn1cc(C(=O)NC/C=C(\C)CCC=C(C)C)cn1	-1	0.1
Cc1cc(C)cc(CCNC(=O)NCc2cnc(C)s2)c1	8	-0.93
O=C(c1ccc2ncccc2c1)N1CC[C@@]2(CCCN(CC3CC3)C2=O)C1	-5	0.89
O=S(=O)(CCC1CCCC1)N1CCCC[C@H]1c1ncc[nH]1	13	-2.2
CC(=O)Nc1cccc(NC(=O)c2cc3c(s2)CCCCC3)c1	-15	1.66
O=C1CCc2cc(S(=O)(=O)N3CCOCC3)ccc2N1	-8	0.64
NC(=O)c1nc(CNC(=O)C[C@@H](c2ccccc2)c2cccc(Cl)c2)no1	-12	2.04
CNC(=O)c1cc2c(s1)CCN(C(=O)[C@H]1CCCN(C(N)=O)C1)C2	-1	0.19
COC(=O)c1coc([C@H](CO)N(C)C)n1	-6	0.81
CC(C)(C)C(O)CNC(=O)[C@H](O)c1ccccc1Cl (stereo partly specified)	18	-2.08
COc1ccccc1Oc1c(CN(Cc2ccco2)C(=O)C(C)C)c(C)nn1-c1ccccc1	-8	1.35
Cc1noc(C)c1S(=O)(=O)N1CCCC[C@H]1c1noc(COCc2ccccc2)n1	1	-0.07
CC1CCN(C(=O)[C@H](C2CCCC2)N2CCN(C(=O)c3ccc(Cl)cc3)CC2)CC1	6	-1.01
O=C(NC[C@@H](CO)Cc1ccc(Br)cc1)c1nnn(C2CC2)c1C(F)(F)F	-2	0.38
O=C1CC(C2CCC2)=NN1c1ccncc1F	-11	1.12
CC(C)CC(=O)N1CCOC(=O)C1(C)C	8	-1.07
Cc1cc(CN(C)C(=O)c2ncsc2C(C)C)no1	-2	0.27
CC(NC(=O)N[C@H]1CCO[C@@H]1c1ccncc1)C1Oc2ccccc2C1C (stereo partly specified)	-1	0.19
O=C1CN(S(=O)(=O)c2ccc(C(=O)NCCc3ccccc3F)cc2)CCN1	-10	1.28
O=C(CS(=O)(=O)c1ccc2c(c1)S(=O)(=O)N=CN2)Nc1cccc2ccccc12	-8	1.1
Cc1nn(-c2ccc(C(=O)NCc3cccnc3)cn2)c(C)c1C	-23	2.65

SMILES	% Inhibition [%]	Z score
Cc1c(C(F)(F)F)n[nH]c1C(=O)N(C)Cc1ccc(Br)cc1F	-14	2.11
O=C(c1ccccc1F)N(Cc1csc(COc2ccc(Cl)cc2)n1)C1CC1	-1	0.16
O=c1c2c(c(Br)cn1Cc1ccc(F)cn1)CCCC2	-3	0.42
COc1ccc(C(=O)O[C@H]2CCOC2=O)cn1	4	-0.48
N#Cc1c(N)nc2c(c1-c1c[nH]c(CC3CCCC3)n1)COCC2	13	-1.91
Cc1noc([C@H](C)OC(=O)c2cc(C(C)(C)C)on2)n1	-8	0.96
COc1ccc(CCN(CCc2nc(-c3ccc(N(C)C)cc3)no2)C(=O)C2CCCC2)cc1OC	-2	0.23
C[C@@H]1CN(C(=O)c2nc3ccc(Cl)cn3c2CN2C[C@H]3CC[C@H]2C3)C[C@H](C)O1	15	-1.98
CCOc1ccc2c(c1)C=C(C(=O)NCCc1csc(C)n1)CO2	1	-0.08
CC(O)C(C)S(=O)(=O)C(C)C(=O)N1CCCCC1 (stereo unspecified)	-10	1.49
CCCC1(Cn2nnnc2N2CCCN(C(C)=O)CC2)CCC1	-6	0.72
NC(=O)CN(CCC1CCCCC1)C(=O)c1cncnc1	-7	0.88
COc1cn(CC(=O)NC2CCN(Cc3ccccc3)CC2)c(CN2CCOCC2)cc1=O	7	-0.83
Cc1ccc(C)c([C@H]2CC(=O)Nc3cc(N4CCCC4=O)ccc32)c1	-11	1.25
O=C(Nc1ccc(Cl)cc1)c1cc2ccccc2cc1NS(=O)(=O)c1cc(Cl)ccc1Cl	12	-1.76
Cc1ccc(-c2cn[nH]c2[C@H]2CCCN(C(=O)c3cnc4ccccn34)C2)cc1	-7	1.4
O=C(C[C@@H]1NC(=O)c2ccccc2NC1=O)Nc1ccccc1	1	-0.07
CCCCC[C@@H](C)NC(=O)N(C)Cc1nc(C)c[nH]1	-5	0.7
CCC[C@@]1(C2CCN(C(=O)CCc3cccs3)CC2)NC(=O)N(CCc2ccccn2)C1=O	-8	1.01
CC12CC(c3ccccc3O1)N(C(=O)c1ccc(Cl)cc1)C(=O)N2c1ccc(F)cc1F (stereo unspecified)	7	-0.78
Cc1cc(CN2CCN(c3nnc(C)c(C)c3C#N)CC2)on1	0	-0.07
CC1CCN(CCCOc2ccc3c(c2)OCO3)CC1	45	-3.83
O=C(Nc1cccc(C2OC(=O)N(Cc3ccc(F)cc3)C2C(=O)Nc2ccccc2)c1)c1ccccc1 (stereo unspecified)	-3	0.33
COCc1cc(=O)n(CC(=O)N[C@@H](C)c2ccc(OC)cc2)c(N2CCOCC2)n1	26	-3.97
NC(=O)c1nc(CNC(=O)N2CCCCCC2)no1	-20	1.8
O=C(NCC1CC1)C1CCN(c2ncnc3c2oc2ccccc23)CC1	-1	0.17
